# Measurements published in PubChem BioAssay AID493169 (National Center for Advancing Translational Sciences (NCATS), 2011).
# Inconclusive means that the source gave no clear call. Such entries were picked first, then a sample of the others. Where the call is inconclusive, the potency comes from a doubtful curve fit. Active and inactive are the calls of the source. Calls follow the shape of the dose curve; as a rule, active = well fitted inhibition curve with a large enough effect; inconclusive = small, poorly fitted or top-dose-only effect; inactive = flat fitted curve, though single readings scatter.
# Assay: CHOP2 Reporter Counterscreen Assay for Inhibitors of Ubiquitin-specific Protease USP2a;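 also: activated enterokinase alone at 50 pM in a cell-free format rather than USP2a or CHOP2; nearly all actives have a fitted effect of over 55% in size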
# Settings: purified enterokinase, fluorogenic substrate, 485/531 nm; series mostly up to 38.3 µM; activity change, negative = inhibition: at the top concentration
# In short: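 Fluorescence (485/531 nm) read 10 min after adding 25nM reporter substrate to 50 pM activated EK preincubated 30 min RT with compound; Tris pH 8.0/CaCl2/CHAPS buffer. Data normalized to buffer-alone inhibition; concentration-response curves fitted.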
# % is scaled to controls: 0 for no effect and ±100 for the full control effect; potency is read from the fitted curve at half-maximal effect; tags tell the direction and shape of the fitted curve.
SMILES,"activity change, negative = inhibition",Potency
O=C(NN=Cc1ccc(N2CCOCC2)s1)c1ccc([N+](=O)[O-])cc1,inactive: -0.184%,
C[C@@H]1CN([C@H](C)CO)C(=O)c2cc(NS(=O)(=O)c3ccc(F)cc3)ccc2O[C@@H]1CN(C)Cc1ccc(Cl)c(Cl)c1,,"inconclusive: 14.1 µM [inhibitor, partial curve, poor fit]"
CCCCNC(=O)Nc1ccccc1C(=O)NCc1ccco1,,"inconclusive: 28.2 µM [inhibitor, partial curve, poor fit]"
Cc1ccc(/C=C/S(=O)(=O)N2CCC(C(=O)O)CC2)cc1,inactive: 0.0087%,
C[C@@H]1CN([C@H](C)CO)C(=O)Cc2cc(NS(=O)(=O)c3ccc(Cl)cc3)ccc2O[C@H]1CN(C)Cc1ccc(C(F)(F)F)cc1,,"inconclusive: 14.1 µM [inhibitor, partial curve, poor fit]"
Cn1c(=O)c(C(=O)Nc2ccccc2S(N)(=O)=O)c(O)c2ccccc21,,"inconclusive: 22.4 µM [inhibitor, single point]"
Cc1ccc(N=C2NC(=O)/C(=C/C=C/c3ccco3)S2)cc1,,"inconclusive: 7.94 µM [inhibitor, partial curve, poor fit]"
O=C1CS/C(=C/C(=O)c2ccccc2)N1,inactive: 0.0345%,
Cc1ccc(S(=O)(=O)N2[C@@H](c3ccc(C(C)(C)C)cc3)C(C(=O)O)=CC[C@H]2c2ccc(Cl)c(Cl)c2)cc1,,"inconclusive: 28.2 µM [inhibitor, single point]"
Cc1ccc(S(=O)(=O)Nc2ccc(N3CCOCC3)cc2)cc1,inactive: 1.6%,
COc1ccc(S(=O)(=O)N(C)CC(=O)Nc2cccc(C(C)=O)c2)cc1Cl,inactive: -1.62%,
O=C(Nc1cccc(C(F)(F)F)c1)/C(=C\c1ccco1)NC(=O)c1cccs1,inactive: 7.95%,
COc1ccc(O)c(-c2cc(-c3ccc(F)cc3)n[nH]2)c1,inactive: -5.03%,
c1ccc(-c2ccccc2OCCCN2CCOCC2)cc1,,"inconclusive: 28.2 µM [inhibitor, single point]"
O=C(/C=C/c1ccc(O)c(O)c1)c1ccc(S(=O)(=O)N2CCCCCC2)cc1,,"inconclusive: 2 µM [inhibitor, full curve, poor fit]"
COC(=O)c1[nH]c2ccccc2c1NC(=O)CN1CCCc2ccccc21,,"inconclusive: 28.2 µM [inhibitor, single point]"
CCCCC(CC)CN=C(N)NC(N)=NCCCCCCN=C(N)NC(N)=NCC(CC)CCCC (stereo not drawn),,active: 5.62 µM
O=C(C[n+]1ccc(C(=O)N/N=C/c2ccc(OCc3ccccc3)cc2)cc1)c1ccccc1,,"inconclusive: 14.1 µM [inhibitor, single point]"
Cc1cc(C(C)(C)CC(C)(C)C)ccc1OCCOCC[N+](C)(C)Cc1ccccc1,,"inconclusive: 20 µM [inhibitor, single point]"
COc1ccc(/C=N\NC(=O)c2cc(O)c(O)c(O)c2)cc1COc1ccc(C(=O)OCC(C)C)cc1,,"inconclusive: 10 µM [inhibitor, partial curve, poor fit]"
O=c1c2c3nc4ccccc4nc3n(Cc3ccccc3)c2ncn1Cc1ccco1,,"inconclusive: 11.2 µM [inhibitor, single point]"
O=C(O)CN1C(=O)/C(=C/c2ccc(SCc3ccccc3)o2)SC1=S,,"inconclusive: 10 µM [inhibitor, single point]"
CCCCCc1ccc(OCCOCCn2c[n+](C)c3ccccc32)c(CCCCC)c1,,"inconclusive: 20 µM [inhibitor, single point]"
